Results published in the supplement of paper PMC11417369.
The other results are listed elsewhere or left out.

tested on: PfAP2-HC AP2 domain (GST-tagged); assay: gcPBM binding intensity (ln(normalized median fluorescence intensity)); higher = stronger DNA binding
In short: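 GST-tagged P. falciparum DNA-binding domains, expressed in E. coli (about 25 μg on average), were applied for 1 h to an Agilent 4 × 180k array of primer-extended double-stranded 36-bp intergenic genomic probes plus negative controls. The binding buffer was 1× PBS with 1% milk, 0.2 mg/ml BSA, 0.5% salmon testes DNA and 0.03% Triton X-100. Bound protein was detected with Alexa488 anti-GST antibody and scanned at 488 nm. Binding intensity is the highest Masliner-normalised natural-log median intensity across replicate spots of either probe orientation.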

Row | Sequence | gcPBM binding intensity (ln)
1 | TGCCAATTTTTAAAAACATGCATTATATAGAATAAA [TGCATGCA_site872] | 9.24
2 | ATTAAAAGGGGGTTTACATGTGTGTGTGTAATATGG [TGCATGCA_negctrl_site293] | 10.6
3 | TACAACAATTTTTGCACACACCAAAACATAAAATAA [CACACA_site4964] | 9.96
4 | ATATTTCATCTAGCTACACACATATAATAAATTATT [CACACA_site4094] | 9.92
5 | AATAATCATTTTCATAGTACGTATGATTAGAAAAAA [XGTACX_site2589] | 9.6
6 | CAAAATATTTTTATAACACACATATTTATAACGTGC [CACACA_site6659] | 9.65
7 | TTTTGATTGTTATTCGTATATTATTTTATGATTATA [CACACA_negctrl_site1593] | 9.69
8 | TTATACATTTGTAAATAAATAGAACTGTATTTTTTT [TGCATGCA_negctrl_site397] | 9.39
9 | TATATACCGATATATACACACAAATACATAAGCTTC [CACACA_site6760] | 9.82
10 | AATATAAACAGACACACACACATATAGATTTATATT [CACACA_site7382] | 10.4
11 | GGATAGATAATAGGGGGTACAAATATACATACATAT [XGTACX_site5089] | 9.99
12 | GAAAATAGAAAAAGCACACATATATTTTGGAATGTA [CACACA_site551] | 9.79
13 | TTTTAATGAAAACACACACACACATATATATATATA [CACACA_site5295] | 11.1
14 | CTAAATATATAAAAAAGTACAAAATAAATAATAATT [XGTACX_site2442] | 9.76
15 | TATATATTATGACCACCACACACCTATACACATAAC [CACACA_site8773] | 10.7
16 | TATTTCTGATTATTTTGTACACATTATATATAATGC [XGTACX_site6990] | 9.7
17 | TAATAAGTACCTTTTGCATGTGGCACGCTTTTTTTT [TGCATGCA_site573] | 9.74
18 | TATTATATAACAAAAAGTACTTATAAGAAATATATA [XGTACX_site5467] | 9.66
19 | AAATGAATTATATAATATATATAAATAAATAAATAA [CACACA_negctrl_site359] | 9.72
20 | AAAAGTATATATTCAGTGCATAGTCTTTAAATATAA [GTGCAC_site9522] | 9.69
21 | ATAAGCATCTGGATATGTACTTATTCCTTTAAAGAT [XGTACX_site6225] | 9.58
22 | TATATATAACATTGTACACACAAAGAAATAATATTA [CACACA_site3035] | 9.92

Row | Sequence | gcPBM binding intensity (ln)
23 | ATAAAAAAGCAACATCATATGTTTTTATAGAGTATT [CACACA_negctrl_site745] | 9.58
24 | AACAAGTTGCATGGTGCACACATGTATTTATATCTA [CACACA_site5414] | 10
25 | TATTAAAAATATTATGTACACACATTTTAGATATTT [CACACA_site8549] | 9.77
26 | AAATTAATGAAATATACACACATATATAAATATATA [CACACA_site4378] | 9.86
27 | AAATTTTTTAATTTTTCTCATTTAATTTAAAAATTA [GTGCAC_negctrl_site155] | 9.32
28 | AAATTAAAGATAAAAGTGCAAAATTATAAATTTATT | 9.81
29 | TATGCTACATTATATGTACACACATATACATATATA [CACACA_site8199] | 9.93
30 | ATTTATACGTAATATGCATAAATATAAATATATATA [XGTACX_negctrl_site133] | 9.69
31 | TTAAAATTTTAAAAATTTTAATTTTACAAAAAAAAT [TGCATGCA_negctrl_site227] | 9.29
32 | TTTCTTTCTTTCTTTTTTTAAATATTTTTTAAAAAT [TGCATGCA_negctrl_site206] | 9.38
33 | ATATAAATAAAAAAAAAAAAAAAAAAAAAAAAAAAA [CACACA_negctrl_site972] | 9.01
34 | ATCATCTTTATTCAAGTGCACTGAAAATTTTTTATA [GTGCAC_site9801] | 9.68
35 | ATAATTATATGGCTAGCACACAATAAATAATTATAT [CACACA_site3815] | 9.75
36 | ATATAAGTGTATCTAACACACAAATATATAAAAATG [CACACA_site1956] | 9.88
37 | ACAAGTTAAAATATTACACACATATAAATATTTATA [CACACA_site7467] | 9.74
38 | AAGAAAAATATTCGTGTGCACAGAAGTATATGTGTG [GTGCAC_site9814] | 10.3
39 | TATTGTAAGAAAGGCACACAGATAAAATTATTATAT [CACACA_site2921] | 9.87
40 | TTTCGCTTTATTTATGCATGCAAATAAGTTGATATT [TGCATGCA_site724] | 9.68
41 | ATTTTTGTAAATACATGTACATATATATGCATATCC [XGTACX_site6353] | 10.1
42 | TACATATATACATACACACACATATAACCAATGTAG [CACACA_site2192] | 10.4
43 | AGTAATAGTTTGTGCACACTCAAGTATATCATAGAT [CACACA_site6082] | 10.2
